About 5,000 (1.2%) of roughly 410,000 compounds were called active. The inconclusive results got no clear call from the source; some entries with a clear call stand among them for comparison. Calls follow the shape of the dose curve; as a rule, active = well fitted inhibition curve with a large enough effect; inconclusive = small, poorly fitted or top-dose-only effect; inactive = no such curve, though single readings can be large or run the other way. A potency beside an inconclusive call is a rough fit, not a confirmed value. The source holds several records for some structures; these can differ, active in one and inactive in another.
test: qHTS for Inhibitors of TGF-b; settings: HepG2 CAGA-GFP TGF-b/SMAD3 reporter, GFP fluorescence, 18 h, TGF-beta stimulated, 500 pg/mL final; series mostly up to 46.1 µM; also: nearly all actives have a fitted effect of over 65% in size
Procedure, shortened: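 TGF-beta reporter screen: HEPG2 CAGA-GFP, 1% FBS, 500 pg/mL TGF-beta final, 18 h; per-cell GFP summed per well; curves fitted and categorized by class.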
Potency is read from the fitted curve at half-maximal effect; tags tell the direction and shape of the fitted curve.

SMILES | Potency
CCN(C(=O)CN1C(=O)S/C(=C\c2ccccc2OC)C1=O)C1CCS(=O)(=O)C1 (stereo not given) | inactive
C/C(=N\NC(=O)c1cc(-c2ccco2)nc2ccccc12)c1cccnc1 | inactive
CNC(=S)NNC(=O)CCn1nc(C)c(Br)c1C | inconclusive: 11.2 µM [inhibitor, partial curve, poor fit]
COc1ccc(-c2nn3c(=O)cc(CN4CCN(C(=O)Nc5ccc(C)c(Cl)c5)CC4)nc3s2)cc1 | inactive
COc1ccc(CCNC(=O)c2nnc(Cc3ccc(Cl)cc3)o2)cc1OC | inconclusive: 7.94 µM [inhibitor, partial curve]
COCCNC(=O)c1cc2c(c(-c3cccc(C#Cc4ccc(OC)c(OC)c4)c3)n1)[C@@H](CCO)N(S(=O)C(C)(C)C)C2 (stereo not given in full) | inactive
COc1ccc(-c2oc3ccc(-c4ccc5c(c4)OCO5)cc3c2-c2ccc(OC)nc2)cc1 | inconclusive: 35.5 µM [inhibitor, partial curve, poor fit]
COc1ccc(-c2cc(C3CCN(Cc4cccc(C(F)(F)F)c4)CC3)[nH]n2)cc1 | inconclusive: 14.1 µM [inhibitor, single point]
Cc1onc(-c2ccccc2)c1C(=O)N/N=C/C(Br)=C/c1ccccc1 | inconclusive: 15.8 µM [inhibitor, partial curve, poor fit]
O=C(Nc1ccc(Br)cc1)C1CCN(S(=O)(=O)c2cccc3nsnc23)CC1 | inconclusive: 0.501 µM [inhibitor, full curve, poor fit]
COc1ccc(C)cc1NC(=O)C1CC(=O)OC12CCCCC2 (stereo not given) | inconclusive: 6.31 µM [inhibitor, single point]
CCOC(=O)C1=C(c2ccccc2)NC(SCC(=O)Nc2ccc(C)cc2)=C(C#N)C1c1ccco1 (stereo not given) | inconclusive: 11.2 µM [inhibitor, partial curve, poor fit]
CCCCNC(=O)C1(C)CCCCN1C(=O)c1ccc2c(c1)C(C)(C)CCC2(C)C (stereo not given) | inconclusive: 22.4 µM [inhibitor, single point]
CC(=O)Nc1nc(CC(C)C)cc(-c2ccco2)c1C#N | inactive
O=S(=O)(c1cccc(C(F)(F)F)c1)n1c(/C=C/c2ccccc2)nc2ccccc21 | inactive
CCc1sc(C(=O)NCCCn2ccnc2)cc1Br | inconclusive: 35.5 µM [inhibitor, single point]
NC(=O)C1=C[C@@H](c2ccc(C(F)(F)F)cc2)C[C@@H](OCc2ccc(CO)cc2)O1 | inactive
O[C@H]1CN(CC2CCCCC2)[C@@H](c2ccc(Cl)cc2)C[C@@H]1n1cc(-c2ccc(F)cc2)nn1 | inactive
CCCCn1c(N)c(N(CCC(C)C)C(=O)c2cc(S(=O)(=O)N3CCOCC3)ccc2F)c(=O)[nH]c1=O | inconclusive: 20 µM [inhibitor, single point]
CC(C)C1C(=O)N(Cc2cn(CCC3OCCO3)nn2)CCS(=O)(=O)N1Cc1ccc(-c2ccc(F)cc2Cl)cc1 (stereo not given) | inconclusive: 12.6 µM [inhibitor, partial curve, poor fit]
Cc1ccc(C(=O)N2CCc3cc(CNC(=O)COc4ccccc4)ccc32)cc1 | inconclusive: 20 µM [inhibitor, single point]
C[C@@]12C(=O)N(c3cccc(F)c3)C(=O)N1[C@H](c1ccc(Cl)cc1)[C@@H]1C(=O)N(C3CCCCC3)C(=O)[C@@H]12 | inconclusive: 14.1 µM [inhibitor, single point]

SMILES | Potency
COc1ccc(CC(N)c2csc(NC(=O)Nc3ccccc3-c3ccccc3)n2)cc1 (stereo not given) | inconclusive: 22.4 µM [inhibitor, single point]
Cc1cc(N2CCCCC2)nc2ccc(NC(=O)c3cccc(F)c3)cc12 | inconclusive: 35.5 µM [inhibitor, single point]
O=C1c2ccccc2-n2c1nc1ccccc1c2=O | inconclusive: 3.16 µM [inhibitor, single point]
Cc1ccc(-c2n[nH]c(=S)n2/N=C/C=C/c2ccccc2[N+](=O)[O-])cc1 | inactive
COc1cc(OC)cc(C(=O)NC(C(=O)NNC(=O)c2cc(Cl)ccc2OC)C(C)C)c1 (stereo not given) | inconclusive: 15.8 µM [inhibitor, single point]
O=C(CC[C@H]1O[C@@H](n2ccc(=O)[nH]c2=O)[C@H](O)[C@@H]1O)N[C@@H](Cc1ccccc1)C(=O)NCC1CCCCC1 | inactive
Cc1n[nH]c(=O)c2c(NC(=O)COC(=O)c3ncc(Cl)c(Cl)c3Cl)oc(C)c12 | inconclusive: 15.8 µM [inhibitor, single point]
CC(=O)Nc1ccc(S(=O)(=O)N(C)CC(=O)OCC(=O)N2CCc3ccccc32)cc1 | inactive
Cn1c(CCN2CCCC2)nc2cc(NS(=O)(=O)c3ccc(F)cc3)ccc21 | inconclusive: 15.8 µM [inhibitor, single point]
Cc1ccc(CNc2ncnc3cc(Cl)ccc23)cc1 | inconclusive: 35.5 µM [inhibitor, single point]
COc1cccc(-c2cc3nc(NCc4ccc5occc5c4)n(C)c(=O)c3s2)c1 | inconclusive: 10 µM [inhibitor, single point]
O=C(COC(=O)c1c(F)cccc1F)NC(=O)NCc1ccccc1 | inconclusive: 2.82 µM [inhibitor, single point]
CCCCc1nc2ccccc2n2c(-c3ccc(C)cc3)c3c(=O)n(C)c(=O)n(C)c3c12 | inactive
CS(=O)(=O)Nc1cccc(NC(=O)C2Cc3c(-c4cccc(F)c4)ccnc3O2)c1 (stereo not given) | inactive
OC(c1ccccc1)(c1nc(-c2cccc(C(F)(F)F)c2)cs1)C(F)(F)F (stereo not given) | inconclusive: 22.4 µM [inhibitor, single point]
CC1(C)CN(C2CCCCC2)C(=O)[C@H]1CC(=O)Nc1ccccc1 | inactive
CSc1nc2c(c(=O)[nH]1)C(c1ccc(Cl)cc1)CC(=O)N2 (stereo not given) | inconclusive: 35.5 µM [inhibitor, single point]
COCCN1C(=O)N(c2cccc(C)c2)C(=O)C1CC(=O)Nc1cc(OC)cc(OC)c1 (stereo not given) | inactive
Nc1c(-c2nc(-c3ccc(Cl)cc3)cs2)c2ccccn2c1C(=O)c1ccc2c(c1)OCO2 | inactive
Cn1cc(CN2CCCC(C(=O)Nc3ccc(-c4cccc(F)c4)cc3)C2)cn1 (stereo not given) | inconclusive: 22.4 µM [inhibitor, single point]
CC(=O)Oc1c(C(=O)c2nnc(C)o2)c(=O)n(Cc2ccccc2)c2ccccc12 | inconclusive: 20 µM [inhibitor, single point]
Cc1c(C)n(Cc2ccc(Cl)cc2)c2ccc(C(=O)NCCc3ccc(S(N)(=O)=O)cc3)cc12 | inconclusive: 22.4 µM [inhibitor, partial curve, poor fit]

SMILES | Potency
Cc1ccc(CNC(=O)c2ccc(CSCc3ccc(C)cc3)o2)cc1 | inconclusive: 12.6 µM [inhibitor, partial curve, poor fit]
CC(O)(c1cccc(F)c1)c1nc(/C=C/c2ccccc2)cs1 (stereo not given) | inconclusive: 35.5 µM [inhibitor, single point]
CC(=O)C1=C(C)NC(SCC(=O)c2cc(Cl)ccc2Cl)=C(C#N)C1c1ccco1 (stereo not given) | inconclusive: 35.5 µM [inhibitor, single point]
CC(=O)c1sc(NC(=O)CCNC(=O)c2ccco2)nc1-c1ccccc1 | inconclusive: 35.5 µM [inhibitor, single point]
COCCCNC(=O)CSc1c2c(nc3ccc(Cl)cc13)CCCC2 | active: 12.6 µM
CC(=O)c1ccc(NC(=S)Nc2ccc(Br)c(Cl)c2)cc1 | inconclusive: 35.5 µM [inhibitor, single point]
CNC(=O)c1nnsc1S(=O)c1ccc(Cl)cc1 (stereo not given) | inconclusive: 35.5 µM [inhibitor, single point]
CC1CN(S(=O)(=O)c2cccc(C(=O)OC/C(O)=C(\C#N)c3nc4ccccc4[nH]3)c2)CC(C)O1 (stereo not given) | inconclusive: 20 µM [inhibitor, single point]
CCOC(=O)c1ccccc1NS(=O)(=O)c1ccccc1 | inactive
Cc1ccc(/C=N/NC(=O)c2ccc3c(c2)OCCO3)s1 | inactive
Cc1cc(C)cc(-n2ccn(CC(=O)Nc3ccccc3C(F)(F)F)c(=O)c2=O)c1 | inactive
CCOc1ccccc1OCC(=O)N/N=C(\C)Cc1ccc(OC)cc1 | inconclusive: 7.08 µM [inhibitor, partial curve, poor fit]
O=C(O)CCC(=O)Nc1sc2c(c1C(=O)Nc1cccc3ccccc13)CCCCC2 | inactive
O=C(/C=C/c1cccc(Cl)c1)NCCCN1CCOCC1 | inactive
Cc1nc(N2CCCC2)c2c(C(=O)N3CCN(c4cccc(Cl)c4)CC3)c(C)oc2n1 | inconclusive: 35.5 µM [inhibitor, single point]
O=C(NCc1cccc(C(F)(F)F)c1)C1CC(c2c(Cl)cccc2Cl)=NO1 (stereo not given) | inconclusive: 22.4 µM [inhibitor, partial curve, poor fit]
C=Cc1ccc(CSc2nc(-c3ccccc3Cl)nc3c2Cc2c(CO)cnc(C)c2O3)cc1 | inactive
Cc1cccc(NC(=S)N=Nc2c(O)[nH]c3ccccc23)c1 | inconclusive: 6.31 µM [inhibitor, single point]
COc1ccc(/C=C/C(=O)NCC(=O)N/N=C(/C)c2ccco2)cc1 | inconclusive: 10 µM [inhibitor, partial curve]
CSc1nc2sc3c(c2c(=O)n1-c1ccccc1C)CCCC3 | inconclusive: 35.5 µM [inhibitor, single point]
Cc1cccc(N2C(=O)CSC23C(=O)N(Cc2cccc(C(F)(F)F)c2)c2ccccc23)c1 (stereo not given) | inconclusive: 25.1 µM [inhibitor, single point]

Source: PubChem BioAssay AID588855 (National Center for Advancing Translational Sciences (NCATS), 2011)
